Several values for one entry are separate records, joined by “and”; a condition that tells them apart may be missing. Equal values may be shown once. Further values from the same series stand in other lists.
Tested on: rat
Assay: concentration in blood after dosing
Details: dosed: tert-amyl methyl ether, inhalation, duration: 6 hr, F344 (Charles River)

CCC(C)(C)O [tertiary amyl alcohol]
Details	concentration in blood
0.1437 h, 100 ppm, female	4.03 µg/mL
0.1613 h, 100 ppm, female	2.75 µg/mL
0.1771 h, 100 ppm, female	3.26 µg/mL
0.248 h, 2500 ppm, female	81.1 µg/mL
0.276 h, 2500 ppm, female	93.3 µg/mL
0.3497 h, 2500 ppm, female	61.8 µg/mL
0.4094 h, 500 ppm, female	24.1 µg/mL
0.4208 h, 500 ppm, female	17.6 µg/mL
0.4238 h, 500 ppm, female	33.3 µg/mL
0.435 h, 500 ppm, female	27 µg/mL
0.4361 h, 2500 ppm, female	90.6 µg/mL
0.4426 h, 2500 ppm, female	70.2 µg/mL
0.4923 h, 100 ppm, female	3.62 µg/mL
0.4952 h, 100 ppm, female	3.42 µg/mL
0.503 h, 100 ppm, female	2.84 µg/mL
0.8293 h, 2500 ppm, female	56.1 µg/mL
0.948 h, 2500 ppm, female	83.3 µg/mL
0.9482 h, 2500 ppm, female	82.6 µg/mL
0.9605 h, 500 ppm, female	25.1 µg/mL
0.9676 h, 500 ppm, female	21.1 µg/mL
0.9688 h, 500 ppm, female	20.4 µg/mL
0.9757 h, 500 ppm, female	16.4 µg/mL
0.9845 h, 2500 ppm, female	68.8 µg/mL
0.9867 h, 2500 ppm, female	61.8 µg/mL and 61.6 µg/mL
1.037 h, 100 ppm, female	2.27 µg/mL
1.054 h, 100 ppm, female	2.7 µg/mL
1.825 h, 100 ppm, male	0.933 µg/mL and 0.888 µg/mL
1.827 h, 100 ppm, male	0.418 µg/mL
1.967 h, 100 ppm, female	1.19 µg/mL
1.968 h, 100 ppm, female	1.1 µg/mL
2.022 h, 500 ppm, female	15.4 µg/mL
2.056 h, 500 ppm, female	13.8 µg/mL and 13.6 µg/mL
2.059 h, 500 ppm, female	12.1 µg/mL
2.098 h, 2500 ppm, female	72.3 µg/mL
2.101 h, 2500 ppm, female	61.8 µg/mL
2.133 h, 2500 ppm, female	61.6 µg/mL
3.86 h, 100 ppm, male	0.628 µg/mL and 0.576 µg/mL
3.861 h, 100 ppm, male	0.355 µg/mL
3.862 h, 100 ppm, male	0.218 µg/mL
3.878 h, 100 ppm, male	1.92 µg/mL
3.88 h, 100 ppm, male	1.5 µg/mL
3.954 h, 2500 ppm, female	43.8 µg/mL
3.955 h, 2500 ppm, female	41.7 µg/mL
3.956 h, 2500 ppm, female	37.9 µg/mL
3.958 h, 2500 ppm, female	31.8 µg/mL
3.959 h, 2500 ppm, female	29.3 µg/mL
3.966 h, 100 ppm, female	0.525 µg/mL
3.968 h, 100 ppm, female	0.35 µg/mL
3.969 h, 100 ppm, female	0.259 µg/mL
3.985 h, 2500 ppm, female	46.3 µg/mL
4 min, 500 ppm, female	26.8 µg/mL
4.032 h, 500 ppm, female	7.98 µg/mL
4.037 h, 500 ppm, female	5.07 µg/mL
4.04 h, 500 ppm, female	3.65 µg/mL
9.846 h, 100 ppm, male	0.216 µg/mL
9.847 h, 100 ppm, male	0.0659 µg/mL
9.954 h, 2500 ppm, female	2.87 µg/mL
9.966 h, 100 ppm, female	0.00827 µg/mL
17.93 h, 500 ppm, female	0.0618 µg/mL
17.94 h, 100 ppm, male	0.0136 µg/mL
17.98 h, 2500 ppm, female	0.412 µg/mL
18.11 h, 100 ppm, female	0.019 µg/mL
26.5 min, 2500 ppm, female	73.2 µg/mL
136 s, 500 ppm, female	25.8 µg/mL
201 s, 2500 ppm, female	84.5 µg/mL
238 s, 2500 ppm, female	52.4 µg/mL
318 s, 2500 ppm, female	82.4 µg/mL
341 s, 2500 ppm, female	62.4 µg/mL
358 s, 500 ppm, female	25.5 µg/mL

female, during exposure
Details	concentration in blood
-217 s, 100 ppm	3.88 µg/mL
-201 s, 500 ppm	26.5 µg/mL
-181 s, 100 ppm	3.16 µg/mL
-149 s, 100 ppm	4.18 µg/mL
-5.935 h, 100 ppm	0.286 µg/mL
-5.934 h, 100 ppm	0.26 µg/mL
-5.932 h, 100 ppm	0.065 µg/mL
-5.873 h, 2500 ppm	1.68 µg/mL
-5.818 h, 500 ppm	1.36 µg/mL
-5.786 h, 500 ppm	0.371 µg/mL
-5.753 h, 100 ppm	0.397 µg/mL and 0.371 µg/mL
-5.643 h, 100 ppm	0.657 µg/mL
-5.642 h, 100 ppm	0.631 µg/mL
-5.6 h, 100 ppm	0.871 µg/mL
-5.587 h, 2500 ppm	3.36 µg/mL
-5.483 h, 500 ppm	2.84 µg/mL
-5.482 h, 500 ppm	2.6 µg/mL
-5.48 h, 500 ppm	1.55 µg/mL
-5.076 h, 100 ppm	1.03 µg/mL
-5.057 h, 100 ppm	1.34 µg/mL
-5.056 h, 100 ppm	1.24 µg/mL
-5.054 h, 100 ppm	1.13 µg/mL
-4.935 h, 500 ppm	5.87 µg/mL
-4.922 h, 2500 ppm	14.3 µg/mL
-4.921 h, 2500 ppm	12.8 µg/mL and 11.6 µg/mL
-4.022 h, 500 ppm	10.5 µg/mL
-4.021 h, 500 ppm	10.3 µg/mL
-4.018 h, 500 ppm	8.47 µg/mL
-3.997 h, 100 ppm	2.38 µg/mL
-3.994 h, 100 ppm	2.17 µg/mL
-3.842 h, 2500 ppm	24.2 µg/mL
-3.813 h, 2500 ppm	31.3 µg/mL
-3.812 h, 2500 ppm	28.8 µg/mL
-3.81 h, 2500 ppm	22.7 µg/mL
-3.809 h, 2500 ppm	21.7 µg/mL
-2.077 h, 500 ppm	22.9 µg/mL
-2.068 h, 500 ppm	17.9 µg/mL
-2.019 h, 100 ppm	3.27 µg/mL
-1.995 h, 100 ppm	1.55 µg/mL
-1.973 h, 2500 ppm	53.8 µg/mL
-1.971 h, 2500 ppm	48.6 µg/mL and 47.9 µg/mL
-1.97 h, 2500 ppm	45.4 µg/mL
-1.969 h, 2500 ppm	41.6 µg/mL
-0.1128 h, 500 ppm	24 µg/mL
-0.1058 h, 500 ppm	20 µg/mL
-0.1054 h, 500 ppm	19.8 µg/mL
